Self-cleavage data for 167 variants are collected here from the RNAGym collection of RNA variant scans (doi:10.7554/elife.90254).

Read counts are not given, so values of variants with three or more changes are uncertain.

B1: LINE1-mini (parent)
chain: GGCAGAGCUCAACACAGCGUGGCAAAGUGGCUGUGGCUAGACUGCC

Variants of B1 are the subject of the data set. The experiment in a line: self-cleavage, relative activity (ratio to wild type); higher = more cleavage; in vitro, sequencing; the parent is a self-cleaving ribozyme.
Consider G17A U38C G44A, for which the self-cleavage was 0.03. Then G17U C31A C42U U43A, with 0.09; and C18A A24C C42G, with 0.

G17C C23A G35C: the self-cleavage was determined as 0.07. Then G17U A24G A26G G27C C37G U43A, with 0.01; and A16U G21A A25G C42G, with 0.01. With C18A G19A C23A A24U G44A the figure was 0.05; with G17U U28A G30C C37U C42U, 0.15. As to C18A C23A A26U, the self-cleavage was found to be 0.38. With C18A A24C G33U U38G A39C, the self-cleavage is 0.02. As to C18A G21U U34C G44U, the self-cleavage came to 0.02. With A16U G36A C37G the figure was 0.06; with A16U C37U G40C C45A, 0.03; with G17U G44A C46U, 0.04.

Regarding G17C G21C G30A, the self-cleavage worked out at 0.21. With G17U G40A A41U the figure was 0.35. Then A16G G33A U34G, with 0.01. Then G17C G19C C23U C31A C42A, with 0.06; and G17A G19U C23A A41G G44U, with 0.01. On to G17A U38A A39C C42A G44C, for which the self-cleavage was found to be 0.01. For G17U A25C G33A C37U, the self-cleavage is 0.06.

On to C18A G27C G33U G36C C46U, for which the self-cleavage was 0.01. With G17A G36C G44A the figure was 0.03; with G17A G30C G36U, 0.04. Regarding G17U C18A G35A C42U G44A C45U, the self-cleavage stood at 0.01.

As for G17A A24C G29A U34G G36U C45A, the self-cleavage is 0.02.

On to G17U U34A G35U, for which the self-cleavage was determined as 0.06. Take G17C G29A G30A U34C: the self-cleavage turned out to be 0.15.

For G17U G22A C46U, the self-cleavage is 0.11. Then C18A G19U G33U C37G, with 0.02. Then G17A G22A G35A, with 0.03; and C18A A26G G36A, with 0.17; and C18A C45U C46G, with 0.03. With G17U G19C U32A the figure was 0.09; with G17A A26U A39G, 0.03.

In the case of G17U G29C A41U, the self-cleavage is 0.29. Take A16U U20C A25G: the self-cleavage was 0.09. Then A16G G29C C46U, with 0.62; and G17C G21A G44C, with 0.03; and G17A G36C C45G, with 0.02. Consider G17U U20C G29U, for which the self-cleavage amounted to 0.39.

In the case of G17A U38C C46A, the self-cleavage was found to be 0.04. Then G17C U20C G22C A26C G29U, with 0.16. As for A16U A25G G44U, the self-cleavage came out at 0.13.

For the variant C18A A24G U28C, the self-cleavage came to 0.53.

Regarding G17C C31A U38C, the self-cleavage came out at 0.41. Turning to A16U G21U G22U C42G, the self-cleavage was 0.02. Turning to G17C G19U A39G, the self-cleavage was found to be 0.11.

Regarding G17C G21A C46A, the self-cleavage amounted to 1.68. Consider A16G G36A C42A C46U, for which the self-cleavage stood at 0.24. With G17A C23G C37A U38C G44C the figure was 0.01; with G17C G19C G33U, 0.08; with G17A A24U G35U C46U, 0.02.

C18A C23A A25U G30U U34A A41C G44A: the self-cleavage amounted to 0. Then G17U G29A U32C, with 0.04; and G17A A25G C37G, with 0.02; and G17A C31A U32G A41C C46G, with 0.01. Take G17A G27U C42A: the self-cleavage worked out at 0.08.

G17U G19U G29U A41G: the self-cleavage was determined as 0.03. Consider G17A A24C G29U C31A, for which the self-cleavage amounted to 0.01. Then G17A C18U G29A C45U, with 0.06.

Turning to G17C C18A G36C, the self-cleavage came out at 0.06.

For G17U C18A G22C, the self-cleavage is 1.17. Then G17A G27U G29U, with 0.6; and C18A G21U G35A, with 0.02; and A16G G35U A41U, with 0.04. With G17A G36A A39C the figure was 0.05; with G17A G36U A41U, 0.07; with C18A A24C G33A U34C C42A, 0.

Consider G17U G21U U34G G35U G40U, for which the self-cleavage is 0.03. Then C18A G19A A26U C42A, with 0.08. For A16U G29C G36A, the self-cleavage turned out to be 0.01. For the variant G17U C18U G21C A26U U28A U32G, the self-cleavage was 0.06.

As to C18A A24U A39U G40A A41G C45U, the self-cleavage is 0.01. With A16U U20A G33C the figure was 0.02; with G17C G40U C46A, 0.11.

In the case of G17C C37U C46U, the self-cleavage amounted to 0.38. Then C18A G29A C37G C46A, with 0.08. For the variant A16U C23G U34A C45U, the self-cleavage came out at 0.06. With G17U A26G C46G the figure was 0.05. Regarding A16U G17A C46G, the self-cleavage is 0.02. Then G17C C31U A41U, with 0.03; and G17A A41U C46A, with 0.04; and G17A C31U U43A, with 0.02.

As to C18A G22U A25U G30C C31U U38C G40U, the self-cleavage worked out at 0.05. Then C18A A24G U28A U32C, with 0.04; and G17A G35A G44U, with 0.02; and C18A G27U G30U, with 1.79. Then A16G U32G G36C C42U, with 0; and A16U G22U G27A U34A U43A, with 0.25.

For A16U G22C C42U, the self-cleavage came out at 0.06. Take G17C G21A G22A G33A G40C U43A: the self-cleavage is 0.02. For the variant A16G G29U G44C, the self-cleavage was determined as 0.11. Then G17A G19A U20G C46U, with 0.02; and G17C G19A U20A G21U, with 0.62.

Turning to A16U C31A C45U, the self-cleavage came to 0.03.

A16U C31A C45A: the self-cleavage was determined as 0.26. With G17A C23G A24G C42A the figure was 0.01. As to C18A G22U G36A, the self-cleavage was 0.1. Then G17A A41C C45A, with 0.01; and A16U G29C G30U, with 0.18. With G17U A26G G40A A41U the figure was 0.03; with G17A G35U G36U G40C, 0.07; with G17U A41G C46A, 0.13. Then A16U C18A A25U G36A, with 0.03.

As to G17A G27C G44U, the self-cleavage amounted to 0.02.

On to A16U G30A C31G, for which the self-cleavage was found to be 0.02. With G17A A26G C42A, the self-cleavage worked out at 0.03. Then A16G U20A G27C C31G, with 0.01; and G17U G30A G44C C46U, with 0.01. Then G17C G27U U34G, with 0.09; and G17C A26G C31A U32G, with 0.03; and C18A G21U U28C G40A, with 0.08. With G17U A24C U34G the figure was 0.05. For the variant G17A G19A C23U U28C G44U, the self-cleavage was 0.02. Then G17A A24U G30C C31A, with 0.11. Then G17A U38A C42A, with 0.05.

With A16U C18G A26G, the self-cleavage is 0.01. With G17U G19U U28C U34G the figure was 0.06; with G17C U28G G29U C31A G36C U43A, 0.05. For the variant A16U G17U C18U G30U U34A G35A, the self-cleavage amounted to 0.02. G17U U20A C31U: the self-cleavage turned out to be 0.08. In the case of G17A G19A G36C C37A, the self-cleavage was found to be 0.04. G17A C23U A24U A39C: the self-cleavage was determined as 0. With C18A A25C C31G A41C, the self-cleavage was 0.02. As for G17A U28G G29A, the self-cleavage was 0.06. Turning to G17C C18A G19U, the self-cleavage came to 0.09. As to A16G G29C G40U A41U, the self-cleavage was found to be 0.21. Turning to G17A G35C C37G U38A, the self-cleavage was 0.07. Consider G17A G30A U34G, for which the self-cleavage came out at 0.01. Then G17C G21C C42G G44U, with 0.02; and A16G U20G C37G, with 0.01.

Turning to C18A G22U G35U C42G, the self-cleavage is 0.01.

As for G17C A24U U34A G44C, the self-cleavage is 0.02. Then G17A C37A C42A, with 0.01. With G17C G35A A39U U43C the figure was 0.01; with A16G G35C C45A C46A, 0.04. For C18A G29A U34A U38C, the self-cleavage came to 0.04. Then G17U C23A U32A, with 0.05; and C18A A26U G35U C42U, with 0.07; and G17A A26C G29U, with 0.03.

Take G17C C18U A26C G33C: the self-cleavage was 0.02.

As for C18A G21A U28A G33U G36C, the self-cleavage amounted to 0.02. With G17A U38A G40A the figure was 0.15; with G17C G27C U34A, 0.04; with G17U C23A U28G U34A, 0.04. Take A16U C23A C31A U32A: the self-cleavage amounted to 1.6. Then A16U A26C C46U, with 0.04; and G17A U32C G33U, with 0.02. Then A16U A24C G27A A39G G40A, with 0.1; and G17C G21A C37G, with 0.06. On to A16U A26G G33U U34A, for which the self-cleavage came to 0.08. A16U G22U A39C: the self-cleavage came to 0. For G17A A26C G36A, the self-cleavage was 0.11. With C18A G22A U32C U34C G36A the figure was 0; with G17U G27U G29A, 0.28. As for G17A U34A U38G, the self-cleavage is 0.

In the case of A16U C18G G21U C37A, the self-cleavage amounted to 0.01.

Regarding C18A G27U U38A, the self-cleavage is 2.62. With G17C G22C U32A the figure was 0.03.

On to G17A G30U G44A, for which the self-cleavage was found to be 0.06. Turning to C18A C23U G33A, the self-cleavage worked out at 0.02. Then C18A C37A G40A, with 0. With G17U C31U U32A U34G G36A C42A the figure was 0.01; with G17A U32C A39C, 0.01; with A16U C23G G27A C45A, 0.01. Then G17U C23A A25U, with 0.07.
